Experimental data reported in the supplement of paper PMC12217912.
Some of the results follow. The full chains were built here from the parent and the listed change. Values near 0.05 are background.

B1: TEV protease; numbered along this chain (parent)
chain: MGESLFKGPRDYNPISSSICHLTNESDGHTTSLYGIGFGPFIITNKHLFRRNNGTLVVQSLHGVFKVKDTTTLQQHLVDGRDMIIIRMPKDFPPFPQKLKFREPQREERICLVTTNFQTKSMSSMVSDTSCTFPSGDGIFWKHWIQTKDGQCGSPLVSTRDGFIVGIHSASNFTNTNNYFTSVPKNFMELLTNQEAQQWVSGWRLNADSVLWGGHKVFMVKPEEPFQPVKEATQL

Variants of: B1
Assay: raw area under fraction-flipped curve 0-4 h after induction (AUC4h, not background-subtracted), DNA-recorder readout of cleavage of the substrate (dimensionless); higher = more cleavage of the substrate by the protease variant
Conditions: temperature: 34 °C; time window: 0-4 h after rhamnose induction
Description: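 In vivo DNA recorder in E. coli TOP10(DE3) ΔrhaA at 34 °C. Each TEVp single-site mutant (parent TEVp 0) is paired with a single-site variant of the 7-mer TEVs (canonical ENLYFQ|S). The substrate sits between flexible linkers in a Bxb1-sfGFP-TEVs-SsrA fusion, so cleavage stabilises Bxb1 and speeds flipping of a recombination array, read by NGS. The value is the raw area under the fraction-flipped curve over 0-4 h after rhamnose induction (AUC4h), with ≥20 reads per time point. It is not background-subtracted; inactive controls average about 0.047.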
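Note: Bxb1 expression induced with 0.2% (w/v) L-rhamnose at OD600 near 0.5, cultures sampled hourly, flipped fraction per protease–substrate barcode pair counted by paired-end Illumina sequencing.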

Variant	area with substrate ENLYFAS	area with substrate ENLYFCS	area with substrate ENLYFDS	area with substrate ENLYFFS	area with substrate ENLYFGS	area with substrate ENLYFHS	area with substrate ENLYFIS	area with substrate ENLYFKS	area with substrate ENLYFMS	area with substrate ENLYFNS	area with substrate ENLYFPS	area with substrate ENLYFRS	area with substrate ENLYFSS	area with substrate ENLYFVS	area with substrate ENLYFES	area with substrate ENLYFLS	area with substrate ENLYFTS	area with substrate ENLYFYS	area with substrate ENLYFWS
G2E	0.0695	0.0693	0.0573	0.0706	0.0497	0.0676	0.0526	0.0605	0.0912	0.0303	0.062	0.0672	0.0501	0.0569	–	–	–	–	–
K7Q	0.0615	0.0672	–	0.0585	0.0603	–	0.0602	0.0646	0.066	–	0.0645	0.0614	0.089	0.0708	0.0736	–	–	–	–
P9M	0.0408	–	0.0632	0.0668	–	0.0549	0.0593	0.0628	0.0542	–	0.053	–	–	0.055	–	0.0536	0.0545	0.0591	–
P9W	0.0652	0.022	–	0.0703	0.0571	0.0684	0.059	0.0626	0.0787	0.0563	0.0425	–	0.0577	0.0809	–	–	0.0635	0.062	0.0482
R10N	0.0547	0.0483	0.0631	0.116	–	–	0.0606	–	0.0506	0.0672	0.0571	0.0757	–	0.063	0.0571	0.0666	0.037	0.0493	0.101
D11M	0.0596	–	0.0592	0.0666	–	0.066	0.0612	–	0.0549	0.0545	0.0615	–	0.0637	0.0665	0.0718	0.0605	0.0579	0.0585	0.0635
N13A	0.0637	–	–	0.0812	–	0.0565	0.0586	0.0544	0.0635	0.0697	0.0607	–	0.0648	0.0541	0.0609	0.0568	0.0643	–	0.0414
N13D	0.0595	0.0543	0.0523	0.0673	–	0.056	0.0556	0.0683	0.0685	0.0677	–	0.0581	0.0644	0.0465	0.0726	0.0643	0.0573	0.0606	0.0556
I15A	0.045	0.0432	0.0528	–	0.0566	0.0451	0.0506	–	0.059	0.066	0.0645	–	–	0.0434	0.0637	0.0612	0.0511	0.0654	0.0063
I15W	0.0615	0.0518	0.0398	0.067	0.0572	0.0608	0.0586	0.0568	0.0674	0.0565	0.0638	0.0615	0.0583	0.0552	0.0628	0.063	0.0562	0.0444	0.0609
I15Y	0.0634	0.0493	0.0544	0.0616	0.0468	0.0622	0.0651	0.0664	0.0542	0.0535	0.0588	0.0556	0.06	–	0.0592	0.0447	–	–	0.0614
S16W	0.053	0.0644	–	0.0667	0.0574	0.0526	0.057	0.0777	0.0596	–	0.0491	0.0693	0.0484	0.0606	0.0593	–	0.052	–	0.0477
S17E	0.0651	0.0629	0.0667	0.0688	–	0.0584	0.058	0.0765	0.0713	0.0599	0.051	0.0576	–	0.0163	0.0739	0.0599	0.0591	0.0508	0.0548
S17H	0.0522	0.0655	0.0436	0.0725	0.0622	0.0541	0.0625	0.0594	0.0845	0.0635	0.0547	0.0562	0.0737	–	0.0591	–	0.0474	0.0451	–
S17K	0.0535	0.0621	0.0421	0.0674	0.0483	0.0485	0.0539	–	0.0725	0.0697	0.065	0.0656	0.0429	0.0568	0.0633	–	0.0677	0.0589	0.0402
S17L	0.0622	0.0589	–	0.0616	0.0717	0.0624	0.0487	–	0.0891	0.0624	0.0621	0.0606	0.0595	0.0573	0.0574	0.0505	0.0533	–	0.0563
S17M	0.07	–	0.0649	0.0649	–	–	0.0454	0.0659	0.0643	0.063	0.0609	0.0559	0.0519	0.0581	0.0631	0.065	0.0526	0.0606	0.0644
S17N	0.0639	–	–	0.0733	–	0.0405	0.0567	0.0594	0.0618	0.0594	0.0532	0.0598	0.0519	–	0.0561	–	0.036	–	0.044
S17V	0.055	–	0.0523	0.0704	0.0537	0.0466	0.0553	0.071	0.0625	0.0632	0.0601	0.0606	0.0554	–	0.0585	0.0487	0.0646	0.0601	0.0851
I19E	0.0485	0.0438	–	0.0525	–	0.0421	0.0469	–	0.101	–	0.0401	0.0568	0.0121	0.0421	0.0415	0.0564	0.0436	–	0.0403
I19F	0.051	0.0632	0.0649	0.0706	–	0.065	0.0563	0.0584	0.0602	0.0437	0.0687	0.0598	–	0.0547	0.0553	0.0561	0.0687	0.0536	0.0877
I19L	0.0695	0.0358	0.0603	0.072	0.0736	0.0599	0.0605	0.067	0.0682	0.045	0.0552	0.079	0.0614	–	0.072	–	0.0626	–	0.0518
C20D	0.0182	0.0473	0.0168	0.0531	0.0395	0.031	0.0407	0.046	0.0444	0.0448	0.0467	0.0486	0.034	0.0399	0.0364	–	0.0322	0.0425	0.0306
